The IC50 comes from the fitted curve, where viability falls to half of the control; fits outside the tested doses are given as limits. The AUC spans the tested range (256-fold, ending at the top dose) of the same fit; values near 1 show little effect. For some assays here: Any top dose called inferred was calculated from the reported fits.
How the values were obtained:
Experiment in all cases: Viability of human cancer cell lines after 72 h of drug (GDSC screen)
[1] = compound: CCC1=C[C@@H]2CN(C1)Cc1c([nH]c3ccccc13)[C@@](C(=O)OC)(c1cc3c(cc1OC)N(C)[C@H]1[C@@](O)(C(=O)OC)[C@H](OC(C)=O)[C@]4(CC)C=CCN5CC[C@]31[C@@H]54)C2 [Vinorelbine]; details: top dose 0.064 µM; top dose inferred
Description: (§1)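 Human cancer cell lines in 384-well plates, medium with 10% serum, drug for 72 h over a 256-fold dose range (nine 2-fold or five 4-fold steps up to the top dose). Adherent lines were fixed and stained with the nucleic acid dye Syto60, suspension lines read with resazurin; signal relative to control wells, capped at 0 and 100%. One two-parameter sigmoid per drug and line, fitted in a mixed model over all curves with the slope shared within a line.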

[2] = compound: O=c1cc(N2CCOCC2)oc2c(-c3cccc4c3sc3ccccc34)cccc12 [NU-7441]; details: top dose 2 µM; top dose inferred
Description: as §1

[3] = compound: COc1cc2nccc(Oc3ccc(NC(=O)C4(C(=O)Nc5ccc(F)cc5)CC4)cc3)c2cc1OC [XL-184]; details: top dose 5.12 µM; top dose inferred
Description: as §1

[4] = compound: COc1cc2ncnc(Nc3cc(Br)c(O)c(Br)c3)c2cc1OC [WHI-P97]; details: top dose 10.24 µM; top dose inferred
Description: as §1

[5] = compound: CNCc1ccc(-c2[nH]c3cc(F)cc4c3c2CCNC4=O)cc1 [AG-014699]; details: top dose 5 µM; top dose inferred
Description: as §1

[6] = compound: COc1cc2ncnc(Nc3ccc(F)c(Cl)c3)c2cc1OCCCN1CCOCC1 [Gefitinib]; details: top dose 0.5 µM
Description: as §1

[7] = compound: C=CC(=O)Nc1cc(NC(=O)c2ccc(C)c(NC(=O)c3ccno3)c2)cc(C(F)(F)F)c1 [QL-XI-92]; details: top dose 10.24 µM; top dose inferred
Description: as §1

[8] = compound: O=c1cc(CN2CCOCC2)occ1OCCCCCSc1ccnc2cc(C(F)(F)F)ccc12 [EHT 1864]; details: top dose 10 µM; top dose inferred
Description: as §1

[9] = compound: N=C(N)NC(=N)NCCc1ccccc1 [Phenformin]; details: top dose 4000 µM; top dose inferred
Description: as §1

| Cell Line | AUC [1] | IC50 [1] [µM] | AUC [2] | IC50 [2] [µM] | AUC [3] | IC50 [3] [µM] | AUC [4] | IC50 [4] [µM] | AUC [5] | IC50 [5] [µM] | AUC [6] | IC50 [6] [µM] | AUC [7] | IC50 [7] [µM] | AUC [8] | IC50 [8] [µM] | AUC [9] | IC50 [9] [µM] |
| --- | --- | --- | --- | --- | --- | --- | --- | --- | --- | --- | --- | --- | --- | --- | --- | --- | --- | --- |
| DMS-273 (small cell lung carcinoma, adherent) | 0.46 | 0.00309 | 0.975 | > 2 | 0.844 | 3.98 | 0.947 | > 10.2 | 0.973 | > 5 | 0.96 | > 0.5 | 0.937 | > 10.2 | 0.899 | > 10 | 0.594 | 460 |
| DOK (head and neck, adherent) | 0.845 | > 0.064 | 0.916 | > 2 | 0.948 | > 5.12 | 0.946 | > 10.2 | 0.959 | > 5 | 0.513 | 0.0346 | 0.976 | > 10.2 | 0.876 | > 10 | 0.962 | > 4000 |
| Detroit562 (head and neck, adherent) | 0.618 | 0.00831 | 0.973 | > 2 | 0.975 | > 5.12 | 0.982 | > 10.2 | 0.973 | > 5 | 0.942 | > 0.5 | 0.988 | > 10.2 | 0.924 | > 10 | 0.831 | 2390 |
| DoTc2-4510 (cervix, adherent) | 0.501 | 0.00403 | 0.981 | > 2 | 0.958 | > 5.12 | 0.941 | > 10.2 | 0.949 | > 5 | 0.925 | > 0.5 | 0.984 | > 10.2 | 0.969 | > 10 | 0.37 | 112 |
| ECC10 (stomach, suspension) | 0.708 | 0.0159 | 0.983 | > 2 | 0.937 | > 5.12 | 0.984 | > 10.2 | 0.933 | > 5 | 0.949 | > 0.5 | 0.934 | > 10.2 | 0.842 | 7.48 | 0.856 | 3450 |
| EFM-192A (breast, adherent) | 0.555 | 0.00576 | 0.976 | > 2 | 0.929 | > 5.12 | 0.971 | > 10.2 | 0.986 | > 5 | 0.977 | > 0.5 | 0.98 | > 10.2 | 0.952 | > 10 | 0.861 | > 4000 |
| EFO-21 (ovary, adherent) | 0.74 | 0.0268 | 0.98 | > 2 | 0.936 | > 5.12 | 0.95 | > 10.2 | 0.945 | > 5 | 0.953 | > 0.5 | 0.961 | > 10.2 | 0.949 | > 10 | 0.839 | > 4000 |
| EFO-27 (ovary, adherent) | 0.577 | 0.00687 | 0.905 | > 2 | 0.943 | > 5.12 | 0.83 | 8.81 | 0.969 | > 5 | 0.817 | 0.374 | 0.972 | > 10.2 | 0.925 | > 10 | 0.835 | 3620 |
| EGI-1 (biliary tract, adherent) | 0.839 | > 0.064 | 0.928 | > 2 | 0.884 | > 5.12 | 0.975 | > 10.2 | 0.981 | > 5 | 0.96 | > 0.5 | 0.956 | > 10.2 | 0.946 | > 10 | 0.795 | 2510 |
| EN (endometrium, adherent) | 0.768 | 0.0304 | 0.984 | > 2 | 0.904 | > 5.12 | 0.98 | > 10.2 | 0.984 | > 5 | 0.984 | > 0.5 | 0.979 | > 10.2 | 0.959 | > 10 | 0.784 | 2200 |
| ESS-1 (endometrium, adherent) | 0.549 | 0.00536 | 0.978 | > 2 | 0.99 | > 5.12 | 0.99 | > 10.2 | 0.936 | > 5 | 0.983 | > 0.5 | 0.919 | > 10.2 | 0.987 | > 10 | 0.987 | > 4000 |
| EW-7 (Ewing sarcoma, semi-adherent) | 0.737 | 0.0172 | 0.97 | > 2 | 0.847 | 3.1 | 0.953 | > 10.2 | 0.983 | > 5 | 0.974 | > 0.5 | 0.964 | > 10.2 | 0.985 | > 10 | 0.396 | 134 |
| FADU (head and neck, adherent) | 0.817 | 0.034 | 0.947 | > 2 | 0.981 | > 5.12 | 0.963 | > 10.2 | 0.908 | > 5 | 0.77 | 0.183 | 0.987 | > 10.2 | 0.966 | > 10 | 0.84 | 2620 |
| FTC-133 (thyroid, adherent) | 0.907 | > 0.064 | 0.926 | > 2 | 0.986 | > 5.12 | 0.984 | > 10.2 | 0.943 | > 5 | 0.965 | > 0.5 | 0.982 | > 10.2 | 0.973 | > 10 | 0.926 | > 4000 |
| FU97 (stomach, adherent) | 0.91 | > 0.064 | 0.938 | > 2 | 0.888 | > 5.12 | 0.978 | > 10.2 | 0.965 | > 5 | 0.975 | > 0.5 | 0.984 | > 10.2 | 0.798 | 4.92 | 0.725 | 1110 |
| FU-OV-1 (ovary, adherent) | 0.855 | > 0.064 | 0.958 | > 2 | 0.883 | > 5.12 | 0.915 | > 10.2 | 0.976 | > 5 | 0.954 | > 0.5 | 0.982 | > 10.2 | 0.966 | > 10 | 0.821 | 3330 |
| G-361 (melanoma, adherent) | 0.506 | 0.00416 | 0.975 | > 2 | 0.961 | > 5.12 | 0.969 | > 10.2 | 0.988 | > 5 | 0.988 | > 0.5 | 0.988 | > 10.2 | 0.925 | > 10 | 0.36 | 104 |
| G-401 (kidney, adherent) | 0.567 | 0.00623 | 0.95 | > 2 | 0.842 | 4.12 | 0.948 | > 10.2 | 0.939 | > 5 | 0.983 | > 0.5 | 0.926 | > 10.2 | 0.921 | > 10 | 0.316 | 72.2 |
| GMS-10 (glioma, adherent) | 0.894 | > 0.064 | 0.956 | > 2 | 0.984 | > 5.12 | 0.988 | > 10.2 | 0.945 | > 5 | 0.984 | > 0.5 | 0.988 | > 10.2 | 0.94 | > 10 | 0.81 | 2080 |
| H4 (glioma, adherent) | 0.608 | – | 0.967 | > 2 | 0.901 | > 5.12 | 0.975 | > 10.2 | 0.852 | 3.81 | 0.985 | > 0.5 | 0.961 | > 10.2 | 0.947 | > 10 | 0.837 | 2630 |
| H513 (mesothelioma, semi-adherent) | 0.964 | > 0.064 | 0.981 | > 2 | 0.985 | > 5.12 | 0.968 | > 10.2 | 0.986 | > 5 | 0.971 | > 0.5 | 0.986 | > 10.2 | 0.962 | > 10 | 0.79 | 2230 |
| H2369 (mesothelioma, adherent) | 0.518 | 0.00448 | 0.979 | > 2 | 0.978 | > 5.12 | 0.981 | > 10.2 | 0.987 | > 5 | 0.98 | > 0.5 | 0.983 | > 10.2 | 0.93 | > 10 | 0.973 | > 4000 |
| H2373 (mesothelioma, adherent) | 0.855 | > 0.064 | 0.946 | > 2 | 0.921 | > 5.12 | 0.978 | > 10.2 | 0.983 | > 5 | 0.981 | > 0.5 | 0.936 | > 10.2 | 0.983 | > 10 | 0.936 | > 4000 |
| H2461 (mesothelioma, adherent) | 0.951 | > 0.064 | 0.983 | > 2 | 0.983 | > 5.12 | 0.981 | > 10.2 | 0.955 | > 5 | 0.983 | > 0.5 | 0.983 | > 10.2 | 0.982 | > 10 | 0.965 | > 4000 |
| H2595 (mesothelioma, adherent) | 0.736 | 0.0251 | 0.966 | > 2 | 0.95 | > 5.12 | 0.97 | > 10.2 | 0.98 | > 5 | 0.972 | > 0.5 | 0.94 | > 10.2 | 0.914 | > 10 | 0.929 | > 4000 |
| H2731 (mesothelioma, adherent) | 0.914 | > 0.064 | 0.98 | > 2 | 0.717 | 1.45 | 0.879 | > 10.2 | 0.984 | > 5 | 0.984 | > 0.5 | 0.879 | > 10.2 | 0.936 | > 10 | 0.984 | > 4000 |
| H2795 (mesothelioma, adherent) | 0.893 | > 0.064 | 0.957 | > 2 | 0.876 | 4.94 | 0.903 | > 10.2 | 0.982 | > 5 | 0.963 | > 0.5 | 0.884 | > 10.2 | 0.909 | > 10 | 0.895 | > 4000 |
| H2869 (mesothelioma, adherent) | 0.634 | 0.0103 | 0.974 | > 2 | 0.884 | > 5.12 | 0.983 | > 10.2 | 0.984 | > 5 | 0.984 | > 0.5 | 0.92 | > 10.2 | 0.956 | > 10 | 0.977 | > 4000 |
| H3118 (head and neck, adherent) | 0.504 | 0.00411 | 0.957 | > 2 | 0.89 | > 5.12 | 0.83 | 7.24 | 0.955 | > 5 | 0.504 | 0.0322 | 0.974 | > 10.2 | 0.862 | 9.94 | 0.769 | 1650 |
| HARA (lung squamous cell carcinoma, adherent) | 0.635 | 0.0101 | 0.959 | > 2 | 0.924 | > 5.12 | 0.933 | > 10.2 | 0.919 | > 5 | 0.727 | 0.156 | 0.948 | > 10.2 | 0.916 | > 10 | 0.812 | 2600 |

— the supplement of paper PMC4967469
